In the supplement of paper PMC9151546:
Most values come without repeats; read them as rough.

Key:
CHO-K1 [1] = assay: hypodiploid nuclei frequency (% of nucleated events); higher = more hypodiploid events (aneugenic)
Experimental: (§1)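 Flow-cytometric in vitro micronucleus assay (Litron MicroFlow) in CHO-K1 cells in 96-well plates, 19 concentrations (4.5-200 µM, n=1 per concentration). Without S9, cells were exposed for 24 h and sampled at 48 h. With Aroclor 1254-induced rat liver S9, cells were exposed for 3-4 h and sampled at 27-28 h. Read-outs are %MN and %hypodiploid nuclei relative to nucleated events, and relative survival as the nuclei-to-bead ratio versus the 1% DMSO vehicle control (x100).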

CHO-K1 [2] = assay: micronucleus frequency (% of nucleated events); higher = more micronuclei (genotoxic)
CHO-K1 [3] = assay: relative survival (nuclei to bead ratio vs DMSO control) (% of vehicle control); higher = more surviving cells
Experimental: as §1
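Wherever hypodiploid nuclei frequency (% of nucleated events) is given: hypodiploid nuclei gated on a flow cytometer with 488 nm excitation after SYTOX Green staining, cultures at 37 °C, positive controls vinblastine without S9 and cyclophosphamide with S9.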
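Wherever micronucleus frequency (% of nucleated events) is given: cells lysed with nuclei stained by SYTOX Green, then micronucleus-gated events counted against nucleated events by flow cytometry with 488 nm excitation.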
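Wherever relative survival (nuclei to bead ratio vs DMSO control) is given: Lysed-cell nuclei stained with SYTOX Green and counted against counting beads by flow cytometry at 488 nm excitation, with vinblastine (no S9) and cyclophosphamide (plus S9) as positive controls.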

ClC1=C(Cl)C2(Cl)C3C4C=CC(C4)C3C1(Cl)C2(Cl)Cl (stereo unspecified) [Aldrin]
Details	hypodiploid nuclei frequency, CHO-K1 [1] [%]	micronucleus frequency, CHO-K1 [2] [%]	relative survival, CHO-K1 [3]
concentration: 4.5 (µM), S9 metabolic activation: with S9, exposure time: 3-4 hours	0.18	1.66	132
concentration: 4.5 (µM), S9 metabolic activation: without S9, exposure time: 24 hours	0.7	1.24	99.7
concentration: 5.63 (µM), S9 metabolic activation: with S9, exposure time: 3-4 hours	0.14	1.4	79.6
concentration: 5.63 (µM), S9 metabolic activation: without S9, exposure time: 24 hours	0.74	1.7	108
concentration: 7.04 (µM), S9 metabolic activation: with S9, exposure time: 3-4 hours	0.12	1.24	102
concentration: 7.04 (µM), S9 metabolic activation: without S9, exposure time: 24 hours	0.66	1.38	108
concentration: 8.8 (µM), S9 metabolic activation: with S9, exposure time: 3-4 hours	0.22	1.26	99.7
concentration: 8.8 (µM), S9 metabolic activation: without S9, exposure time: 24 hours	0.5	1.74	89.8
concentration: 11 (µM), S9 metabolic activation: with S9, exposure time: 3-4 hours	0.3	1.14	98.6
concentration: 11 (µM), S9 metabolic activation: without S9, exposure time: 24 hours	0.48	2.08	112
concentration: 13.7 (µM), S9 metabolic activation: with S9, exposure time: 3-4 hours	0.22	0.96	105
concentration: 13.7 (µM), S9 metabolic activation: without S9, exposure time: 24 hours	0.94	1.58	85.2
concentration: 17.2 (µM), S9 metabolic activation: with S9, exposure time: 3-4 hours	0.26	0.96	104
concentration: 17.2 (µM), S9 metabolic activation: without S9, exposure time: 24 hours	0.68	1.64	118
concentration: 21.5 (µM), S9 metabolic activation: with S9, exposure time: 3-4 hours	0.2	1.08	111
concentration: 21.5 (µM), S9 metabolic activation: without S9, exposure time: 24 hours	0.56	1.84	86.3
concentration: 26.8 (µM), S9 metabolic activation: with S9, exposure time: 3-4 hours	0.18	0.82	123
concentration: 26.8 (µM), S9 metabolic activation: without S9, exposure time: 24 hours	0.48	1.6	123
concentration: 33.6 (µM), S9 metabolic activation: with S9, exposure time: 3-4 hours	0.3	1.36	149
concentration: 33.6 (µM), S9 metabolic activation: without S9, exposure time: 24 hours	0.68	2.12	163
concentration: 41.9 (µM), S9 metabolic activation: with S9, exposure time: 3-4 hours	0.24	1.68	112
concentration: 41.9 (µM), S9 metabolic activation: without S9, exposure time: 24 hours	0.6	1.8	122
concentration: 52.4 (µM), S9 metabolic activation: with S9, exposure time: 3-4 hours	0.2	1.52	86.2
concentration: 52.4 (µM), S9 metabolic activation: without S9, exposure time: 24 hours	0.66	2.1	109
concentration: 65.5 (µM), S9 metabolic activation: with S9, exposure time: 3-4 hours	0.25	1.2	74.7
concentration: 65.5 (µM), S9 metabolic activation: without S9, exposure time: 24 hours	0.9	1.96	91.3
concentration: 81.9 (µM), S9 metabolic activation: with S9, exposure time: 3-4 hours	0.15	0.76	63.8
concentration: 81.9 (µM), S9 metabolic activation: without S9, exposure time: 24 hours	0.82	2.42	75.9
concentration: 102 (µM), S9 metabolic activation: with S9, exposure time: 3-4 hours	0.14	1.29	57.6
concentration: 102 (µM), S9 metabolic activation: without S9, exposure time: 24 hours	0.88	2.22	54.3
concentration: 128 (µM), S9 metabolic activation: with S9, exposure time: 3-4 hours	0.24	0.8	62.5
concentration: 128 (µM), S9 metabolic activation: without S9, exposure time: 24 hours	0.9	1.8	46
concentration: 160 (µM), S9 metabolic activation: with S9, exposure time: 3-4 hours	0.05	3.77	51
concentration: 160 (µM), S9 metabolic activation: without S9, exposure time: 24 hours	–	–	12.6
concentration: 200 (µM), S9 metabolic activation: with S9, exposure time: 3-4 hours	–	–	9.88
concentration: 200 (µM), S9 metabolic activation: without S9, exposure time: 24 hours	–	–	0.54

c1ccc(/N=N/c2ccccc2)cc1 [Azobenzene]
Details	hypodiploid nuclei frequency, CHO-K1 [1] [%]	micronucleus frequency, CHO-K1 [2] [%]	relative survival, CHO-K1 [3]
concentration: 4.5 (µM), S9 metabolic activation: with S9, exposure time: 3-4 hours	0.18	1.92	112
concentration: 4.5 (µM), S9 metabolic activation: without S9, exposure time: 24 hours	1.08	1.88	117
concentration: 5.63 (µM), S9 metabolic activation: with S9, exposure time: 3-4 hours	0.5	2.72	101
concentration: 5.63 (µM), S9 metabolic activation: without S9, exposure time: 24 hours	0.7	2.42	105
concentration: 7.04 (µM), S9 metabolic activation: with S9, exposure time: 3-4 hours	0.32	2.34	95.3
concentration: 7.04 (µM), S9 metabolic activation: without S9, exposure time: 24 hours	0.76	2.34	101
concentration: 8.8 (µM), S9 metabolic activation: with S9, exposure time: 3-4 hours	0.34	2.06	96.4
concentration: 8.8 (µM), S9 metabolic activation: without S9, exposure time: 24 hours	1.16	2.66	81.6
concentration: 11 (µM), S9 metabolic activation: with S9, exposure time: 3-4 hours	0.24	1.34	116
concentration: 11 (µM), S9 metabolic activation: without S9, exposure time: 24 hours	0.86	2.58	112
concentration: 13.7 (µM), S9 metabolic activation: with S9, exposure time: 3-4 hours	0.36	1.9	121
concentration: 13.7 (µM), S9 metabolic activation: without S9, exposure time: 24 hours	0.7	2.1	97.8
concentration: 17.2 (µM), S9 metabolic activation: with S9, exposure time: 3-4 hours	0.22	1.92	100
concentration: 17.2 (µM), S9 metabolic activation: without S9, exposure time: 24 hours	0.9	2.28	110
concentration: 21.5 (µM), S9 metabolic activation: with S9, exposure time: 3-4 hours	0.34	1.84	93
concentration: 21.5 (µM), S9 metabolic activation: without S9, exposure time: 24 hours	1.1	3.42	106
concentration: 26.8 (µM), S9 metabolic activation: with S9, exposure time: 3-4 hours	0.26	2.34	118
concentration: 26.8 (µM), S9 metabolic activation: without S9, exposure time: 24 hours	1.22	2.18	97.4
concentration: 33.6 (µM), S9 metabolic activation: with S9, exposure time: 3-4 hours	0.28	2.76	86.8
concentration: 33.6 (µM), S9 metabolic activation: without S9, exposure time: 24 hours	1.18	1.76	110
concentration: 41.9 (µM), S9 metabolic activation: with S9, exposure time: 3-4 hours	0.66	3.56	83.7
concentration: 41.9 (µM), S9 metabolic activation: without S9, exposure time: 24 hours	0.86	1.88	114
concentration: 52.4 (µM), S9 metabolic activation: with S9, exposure time: 3-4 hours	1.01	6.27	54.7
concentration: 52.4 (µM), S9 metabolic activation: without S9, exposure time: 24 hours	1.04	1.88	124
concentration: 65.5 (µM), S9 metabolic activation: with S9, exposure time: 3-4 hours	–	–	37.5
concentration: 65.5 (µM), S9 metabolic activation: without S9, exposure time: 24 hours	1.12	1.9	110
concentration: 81.9 (µM), S9 metabolic activation: with S9, exposure time: 3-4 hours	–	–	32.5
concentration: 81.9 (µM), S9 metabolic activation: without S9, exposure time: 24 hours	1.48	1.88	94.7
concentration: 102 (µM), S9 metabolic activation: with S9, exposure time: 3-4 hours	–	–	24.3
concentration: 102 (µM), S9 metabolic activation: without S9, exposure time: 24 hours	1.36	2.42	91.3
concentration: 128 (µM), S9 metabolic activation: with S9, exposure time: 3-4 hours	–	–	20.3
concentration: 128 (µM), S9 metabolic activation: without S9, exposure time: 24 hours	1.88	2.32	95.1
concentration: 160 (µM), S9 metabolic activation: with S9, exposure time: 3-4 hours	–	–	20.5
concentration: 160 (µM), S9 metabolic activation: without S9, exposure time: 24 hours	2.02	2.4	127
concentration: 200 (µM), S9 metabolic activation: with S9, exposure time: 3-4 hours	–	–	4.95
concentration: 200 (µM), S9 metabolic activation: without S9, exposure time: 24 hours	2.66	2.38	88.2

OCc1ccccc1 [Benzyl alcohol]
Details	hypodiploid nuclei frequency, CHO-K1 [1] [%]	micronucleus frequency, CHO-K1 [2] [%]	relative survival, CHO-K1 [3]
concentration: 4.48 (µM), S9 metabolic activation: with S9, exposure time: 3-4 hours	0.26	1.72	103
concentration: 4.48 (µM), S9 metabolic activation: without S9, exposure time: 24 hours	0.77	1.78	106
concentration: 5.6 (µM), S9 metabolic activation: with S9, exposure time: 3-4 hours	0.46	2.86	117
concentration: 5.6 (µM), S9 metabolic activation: without S9, exposure time: 24 hours	0.56	1.6	121
concentration: 7 (µM), S9 metabolic activation: with S9, exposure time: 3-4 hours	0.3	1.34	102
concentration: 7 (µM), S9 metabolic activation: without S9, exposure time: 24 hours	0.78	2.16	116
concentration: 8.75 (µM), S9 metabolic activation: with S9, exposure time: 3-4 hours	0.36	1.62	115
concentration: 8.75 (µM), S9 metabolic activation: without S9, exposure time: 24 hours	0.53	1.81	116
concentration: 10.9 (µM), S9 metabolic activation: with S9, exposure time: 3-4 hours	0.18	1.24	112
concentration: 10.9 (µM), S9 metabolic activation: without S9, exposure time: 24 hours	0.55	1.84	115
concentration: 13.7 (µM), S9 metabolic activation: with S9, exposure time: 3-4 hours	0.2	1.48	108
concentration: 13.7 (µM), S9 metabolic activation: without S9, exposure time: 24 hours	0.66	1.47	117
concentration: 17.1 (µM), S9 metabolic activation: with S9, exposure time: 3-4 hours	0.36	1.6	131
concentration: 17.1 (µM), S9 metabolic activation: without S9, exposure time: 24 hours	0.88	1.76	138
concentration: 21.4 (µM), S9 metabolic activation: with S9, exposure time: 3-4 hours	0.4	1.54	122
concentration: 21.4 (µM), S9 metabolic activation: without S9, exposure time: 24 hours	0.9	1.66	112
concentration: 26.7 (µM), S9 metabolic activation: with S9, exposure time: 3-4 hours	0.34	1.52	157
concentration: 26.7 (µM), S9 metabolic activation: without S9, exposure time: 24 hours	0.8	1.82	115
concentration: 33.4 (µM), S9 metabolic activation: with S9, exposure time: 3-4 hours	0.2	1.44	110
concentration: 33.4 (µM), S9 metabolic activation: without S9, exposure time: 24 hours	0.71	1.42	108
concentration: 41.7 (µM), S9 metabolic activation: with S9, exposure time: 3-4 hours	0.34	1.42	105
concentration: 41.7 (µM), S9 metabolic activation: without S9, exposure time: 24 hours	0.65	1.72	102
concentration: 52.2 (µM), S9 metabolic activation: with S9, exposure time: 3-4 hours	0.44	1.24	102
concentration: 52.2 (µM), S9 metabolic activation: without S9, exposure time: 24 hours	0.7	1.63	114
concentration: 65.2 (µM), S9 metabolic activation: with S9, exposure time: 3-4 hours	0.38	0.9	121
concentration: 65.2 (µM), S9 metabolic activation: without S9, exposure time: 24 hours	0.83	2.7	104
concentration: 81.5 (µM), S9 metabolic activation: with S9, exposure time: 3-4 hours	0.2	1.16	131
concentration: 81.5 (µM), S9 metabolic activation: without S9, exposure time: 24 hours	0.89	2.25	110
concentration: 102 (µM), S9 metabolic activation: with S9, exposure time: 3-4 hours	0.22	1.34	120
concentration: 102 (µM), S9 metabolic activation: without S9, exposure time: 24 hours	1	2.05	109
concentration: 127 (µM), S9 metabolic activation: with S9, exposure time: 3-4 hours	0.3	1.3	122
concentration: 127 (µM), S9 metabolic activation: without S9, exposure time: 24 hours	1.03	2.19	108
concentration: 159 (µM), S9 metabolic activation: with S9, exposure time: 3-4 hours	0.3	1.5	133
concentration: 159 (µM), S9 metabolic activation: without S9, exposure time: 24 hours	1.16	2.26	117
concentration: 199 (µM), S9 metabolic activation: with S9, exposure time: 3-4 hours	0.2	1.28	139
concentration: 199 (µM), S9 metabolic activation: without S9, exposure time: 24 hours	1.34	2.1	109
